In US8906909B2 (Curis, Inc., priority 2009, dated 2014):
For at least one compound, name, drawing or mass did not settle the structure.

What was measured:
[1] = test system: HDACs (HeLa cell nuclear extracts); test: HDAC enzymatic activity, Biomol Color de Lys system; type: biochemical
Experimental: (e) An In Vitro Assay which Determines the Ability of a Test Compound to Inhibit HDAC Enzymatic Activity.
HDAC inhibitory activity was assessed using the Biomol Color de Lys system (AK-500, Biomol, Plymouth Meeting, Pa.). Briefly, HeLa cell nuclear extracts were used as a source of HDACs. Different concentrations of test compounds were serially diluted in dimethylsulphoxide (DMSO) and added to HeLa cell nuclear extracts in the presence of a colorimetric artificial substrate. Final assay condition contained 50 mM Tris/Cl, pH 8.0, 137 mM NaCl, 2.7 mM KCl and 1 mM MgCl2. Reactions were carried in room temperature (25° C.) for 1 hour before addition of developer for termination. Relative enzyme activity was measured in the WALLAC Victor II 1420 microplate reader as floorescence intensity (excitation: 350-380 nm; emission: 440-460 nm). Data were analyzed using GraphPad Prism (v4.0a) with a sigmoidal dose response curve fitting for IC50 calculation.

tumor = details: Hayakawa et al 2006; cited from earlier work
PI3K = details: Hayakawa et al 2006; cited from earlier work

Row | SMILES | IC50 [1] | in vivo anti-tumor activity (tumor) | PI3K IC50 value (PI3K)
1 | CN(Cc1cc2nc(-c3cccc(CCO)c3)nc(N3CCOCC3)c2s1)c1ncc(C(=O)NO)cn1 [Compound 306] | < 100 nM | – | –
2 | COc1ccc(-c2nc(N3CCOCC3)c3sc(CN(C)c4ncc(C(=O)NO)cn4)cc3n2)cc1 [Compound 131, N-hydroxy-2-(((2-(4-methoxyphenyl)-4-morpholinothieno[3,2-d]pyrimidin-6-yl)methyl)(methyl)amino)pyrimidine-5-carboxamide] | < 100 nM | – | –
3 | COCCN(Cc1cc2nc(-c3cccc4[nH]ncc34)nc(N3CCOCC3)c2s1)c1ncc(C(=O)NO)cn1 [Compound 90, 2-(((2-(1H-indazol-4-yl)-4-morpholinothieno[3,2-d]pyrimidin-6-yl)methyl)(2-methoxyethyl)amino)-N-hydroxypyrimidine-5-carboxamide] | < 100 nM | – | –
4 | COC[C@H]1OC(=O)c2coc3c2[C@@]1(C)C1=C(C3=O)[C@@H]2CCC(=O)[C@@]2(C)C[C@H]1OC(C)=O [wortmannin] | – | low in vivo anti-tumor activity | low nanomolar
5 | CN(Cc1cc2nc(-c3cccc(C(=O)O)c3)nc(N3CCOCC3)c2s1)c1ncc(C(=O)NO)cn1 [Compound 303] | < 100 nM | – | –
6 | CNc1ccc(-c2nc(N3CCOCC3)c3sc(NCCCCC(=O)NO)cc3n2)cn1 [Compound 228, N-Hydroxy-5-(2-(6-(methylamino)pyridin-3-yl)-4-morpholinothieno[3,2-d]pyrimidin-6-ylamino)pentanamide] | < 100 nM | – | –
7 | O=C(CCCCN1CCN(Cc2cc3nc(-c4cccc5[nH]ncc45)nc(N4CCOCC4)c3s2)CC1)NO [Compound 11, 5-(4-((2-(1H-indazol-4-yl)-4-morpholinothieno[3,2-d]pyrimidin-6-yl)methyl)piperazin-1-yl)-N-hydroxypentanamide] | 1000 to 10000 nM | – | –
8 | CN(Cc1cc2nc(-c3cccc(S(N)(=O)=O)c3)nc(N3CCOCC3)c2s1)c1ncc(C(=O)NO)cn1 [Compound 305] | < 100 nM | – | –
9 | CN(Cc1cc2nc(-c3ccc([N+](=O)[O-])c(O)c3)nc(N3CCOCC3)c2s1)c1ncc(C(=O)NO)cn1 [Compound 293, N-Hydroxy-2-(((2-(3-hydroxy-4-nitrophenyl)-4-morpholinothieno[3,2-d]pyrimidin-6-yl)methyl)(methyl)amino)pyrimidine-5-carboxamide] | < 100 nM | – | –
10 | CN(Cc1cc2nc(-c3cccc(C(=O)OC(C)(C)C)c3)nc(N3CCOCC3)c2s1)c1ncc(C(=O)NO)cn1 [Compound 304] | < 100 nM | – | –
